# Measurements from PubChem BioAssay AID588855 (National Center for Advancing Translational Sciences (NCATS), 2011).
# In all, about 410,000 compounds went through this assay and about 5,000 (1.2%) were called active. This list was built around the results that the source calls inconclusive (neither active nor inactive); the mix of calls is not that of the screen. Calls come from the whole dose curve; as a rule, active = well fitted inhibition curve with a large enough effect; inconclusive = small, poorly fitted or top-dose-only effect; inactive = no such curve, though single readings can be large or run the other way. Where the call is inconclusive, the potency comes from a doubtful curve fit.
# Assay: qHTS for Inhibitors of TGF-b; note: nearly all actives have a fitted effect of over 65% in size
# Details: HepG2 CAGA-GFP TGF-b/SMAD3 reporter, GFP fluorescence, 18 h, TGF-beta stimulated, 500 pg/mL final; series mostly up to 46.1 µM; activity, negative = inhibition: at the top concentration
# Outline: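 HEPG2 CAGA-GFP reporter cells (1000/well, DMEM with 1% FBS) received compounds, then recombinant TGF-beta at 500 pg/mL final for 18 hours at 37 degrees C. Per-cell GFP summed per well was normalised to unstimulated and stimulated DMSO controls before curve fitting.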
# % is set by controls: 0 for no effect and ±100 for the full control effect; potency is the fitted concentration of half-maximal effect; tags give direction and shape of the fitted curve.
Compound,Potency,"activity, negative = inhibition"
CN(C)c1ccccc1C(=O)N1CCCC(Nc2ccc(F)cc2)C1 (stereo not given),"inconclusive: 11.2 µM [inhibitor, partial curve, poor fit]",
CCCCNC(=O)CCn1c(=O)c2ccccc2n(Cc2ccc(Cl)cc2)c1=O,,inactive: -9.98%
Cc1ccc(CNC(=O)CCCCCn2c(=O)c3sccc3n(CC(=O)Nc3ccc(C)c(F)c3)c2=O)cc1,"inconclusive: 3.16 µM [inhibitor, full curve, poor fit]",
CCn1c(=S)sc2c(=O)n(CC(=O)Nc3cccc(Br)c3)c(C)nc21,"inconclusive: 20 µM [inhibitor, single point]",
CCc1cnc2c(c1SCc1ccccc1C)c(=O)n(C)c(=O)n2C,"inconclusive: 25.1 µM [inhibitor, single point]",
Cc1ccc(CNc2nc3c([nH]2)c(=O)n(C)c(=O)n3C)cc1,,inactive: 0.254%
Clc1ccccc1NN(Cc1ccncc1)c1ccccc1Cl,"inconclusive: 35.5 µM [inhibitor, single point]",
O=C(N/N=C/c1cc(Br)ccc1O)C(=O)Nc1ccccc1OC(F)(F)C(F)F,"inconclusive: 10 µM [inhibitor, partial curve, poor fit]",
CCOC(=O)c1cnn(-c2ccc(Cl)cc2)c1C1CCN(C(=O)OC(C)(C)C)CC1,"inconclusive: 35.5 µM [inhibitor, single point]",
O=c1oc2ccccc2cc1-c1csc(Nc2ccc(O)cc2)n1,"inconclusive: 35.5 µM [inhibitor, single point]",
Cc1ccc(NC(=O)COc2coc(CN3CCc4ccccc43)cc2=O)cc1Cl,"inconclusive: 6.31 µM [inhibitor, single point]",
COc1ccc2c(c1)c(CC(=O)Nc1ccc(C(C)=O)cc1)c(C)n2C(=O)c1ccc(Cl)cc1,inactive,
c1ccc(N2CCN(c3nc(NCc4ccco4)c4ccccc4n3)CC2)cc1,"inconclusive: 25.1 µM [inhibitor, single point]",
O=C(C=Cc1cccc(Cl)c1)c1ccccc1,"inconclusive: 35.5 µM [inhibitor, single point]",
C[C@@H](C(=O)Nc1ccc2ccccc2c1)[C@H]1C[C@]1(C)[C@H](NS(=O)(=O)c1ccc(-c2ccccc2)cc1)c1ccccc1,"inconclusive: 2.82 µM [inhibitor, single point]",
CC1CCN(c2nc3nonc3nc2Nc2ccc(F)cc2)CC1,"inconclusive: 7.94 µM [inhibitor, partial curve, poor fit]",
COc1ccccc1CN1CCNC(=O)C1CC(=O)NCCOc1cccnc1 (stereo not given),,inactive: 9.41%
Oc1ccc(/C=N/n2c3ccccc3c3ccccc32)cc1,"inconclusive: 14.1 µM [inhibitor, single point]",
O=C1N[C@@H](Cc2c[nH]c3ccccc23)COC(=O)[C@H](Cc2ccc(F)cc2)C/C=C\C[C@@H]1CC(=O)N(CCO)Cc1ccccc1,"inconclusive: 17.8 µM [inhibitor, single point]",
O=C(CCS(=O)(=O)c1ccc(Br)cc1)NCc1ccco1,,inactive: 7.59%

Compound,Potency,"activity, negative = inhibition"
O=C1c2ccccc2C(=O)c2cc(S(=O)(=O)Nc3ccccc3)ccc21,active: 20 µM,
Cc1cc(C)c2nc(N(CCCN(C)C)C(=O)c3ccc4c(c3)OCCO4)sc2c1,"inconclusive: 20 µM [inhibitor, single point]",
COc1cc(CN2CCCC(C(=O)Nc3ccccc3Oc3cccnc3)C2)ccc1F (stereo not given),,inactive: -0.693%
CCN(CC)S(=O)(=O)c1cccc(NC(=O)COC(=O)c2n[nH]c(=O)c3ccccc23)c1,"inconclusive: 25.1 µM [inhibitor, single point]",
O=C(C1CCC(Cn2c(=O)c3sccc3n(Cc3ccccc3)c2=O)CC1)N1CCCCC1 (stereo not given),"inconclusive: 35.5 µM [inhibitor, single point]",
O=C(NC(c1ccccc1)c1ccc2ccccc2n1)C1CCN(Cc2cccc(C(F)(F)F)c2)CC1 (stereo not given),"inconclusive: 35.5 µM [inhibitor, single point]",
COc1ccc(C(=O)COC(=O)c2ccc(Cl)nc2)c(OC)c1,,inactive: 23.7%
Cc1ccc(OCc2cc(C(=O)N(C)C3CCCc4ccccc43)no2)cc1C (stereo not given),"inconclusive: 8.91 µM [inhibitor, partial curve, poor fit]",
Cc1cccc2nc(Cn3c(=O)n(CCCC(=O)NCc4ccco4)c(=O)c4ccccc43)cc(=O)n12,"inconclusive: 35.5 µM [inhibitor, single point]",
Cc1ccccc1NS(=O)(=O)c1ccc(C(=O)NNC(=O)c2ccccc2O)cc1,"inconclusive: 35.5 µM [inhibitor, single point]",
C[C@@H](NCCCn1cnc2c(OCc3ccccc3)ncnc21)c1cccc2ccccc12,"inconclusive: 22.4 µM [inhibitor, single point]",
COc1ccc(-n2c(C)cc(C(=O)COC(=O)Cc3n[nH]c(=O)c4ccccc34)c2C)cc1,,inactive: -5.73%
Cc1ccc2nc(-c3cccc(Br)c3)c(Cc3cccc(Cl)c3)n2c1,"inconclusive: 11.2 µM [inhibitor, partial curve]",
COC(=O)c1c(-c2ccc(OC)cc2)sc2cc(OC)c(OC)cc12,"inconclusive: 22.4 µM [inhibitor, partial curve, poor fit]",
Cc1ccccc1NS(=O)(=O)c1cc(C(=O)NCCSC2CCCCC2)ccc1C,"inconclusive: 35.5 µM [inhibitor, single point]",
Cc1ccc(Cl)cc1NC(=S)N(Cc1cccnc1)Cc1ccccc1Cl,"inconclusive: 28.2 µM [inhibitor, single point]",
Cc1ccc(C(=O)Nc2ccccc2)cc1S(=O)(=O)Nc1ccc(Br)cc1,"inconclusive: 35.5 µM [inhibitor, single point]",
CC1(c2nnc(-c3cccc(Cl)c3)o2)CC(c2ccc(F)cc2)=NO1 (stereo not given),"inconclusive: 20 µM [inhibitor, partial curve, poor fit]",
O=C(NCCN1C(=O)S/C(=C\c2ccccc2)C1=O)c1cc(S(=O)(=O)N2CCOCC2)c(Cl)cc1Cl,,inactive: 0%
CC1=C(C(=O)OCc2ccccc2)N2C(=O)[C@@H](NC(=O)COc3ccccc3)[C@H]2SC1,"inconclusive: 6.31 µM [inhibitor, single point]",
